This test relates to NCI-H322M lung. Nature of the test: inhibition of tumour cell growth, NCI panel, 48 h.

SMILES strings stand for the structures.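 48-hour exposure; five concentrations; linearly interpolated endpoints. Here, GI50 denotes the concentration required for 50% inhibition of growth. TGI marks complete inhibition of growth.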

On to `CCN(CC)c1ccc2cc(C(N)=S)c(=N)oc2c1`, for which the TGI was over 100 µM.
On the same count and under the same terms, with `COc1cc(S(=O)(=O)Nc2nc(-c3ccc(N4C(=O)/C(=C/C=C/c5ccccc5)N=C4c4ccccc4)cc3)cs2)ccc1Cl` the figure was over 100 µM; with `Oc1cc2c3c(c1)CCCN3CCC2`, over 10 µM; with `CCCCCCCCCCCCCCCCCCN(C)C(COC)COP(=O)([O-])OCC[N+](C)(C)C` (stereo not drawn), 21 µM.
As to `Cc1ccc(NC2=C(Cl)C(=O)N(Cc3ccc(Cl)cc3)C2=O)cc1O`, the GI50 was 5.11 µM and the TGI is 21 µM.
For the compound `O=C1/C(=C/c2ccc(OC(=O)c3ccccc3)cc2)CCC/C1=C\c1ccc(OC(=O)c2ccccc2)cc1`, the TGI is over 100 µM.
Consider `COc1ccc(/C(COc2ccc3c(=O)c(-c4ccccc4)coc3c2)=N\O)cc1`, for which the GI50 was 5.56 µM and the TGI came out at 33 µM.
On to `CN1C/C(=C\c2cccs2)C2=NN(C)C(c3cccs3)C2C1` (stereo not drawn), for which the TGI was over 100 µM.
On the same count and under the same terms, with `COC(=O)C1=CSC2(S1)C(C(=O)OC)=CSc1c2ssc1=O` (stereo not drawn) the figure was 14.2 µM; with `O=C1C=CC(=O)C12CCc1ccccc12`, over 100 µM; with `C/C(=N\n1c(Cc2ccccc2)n[nH]c1=O)c1ccccc1`, over 100 µM.
`O=C(c1c(F)c(F)c(F)c(F)c1F)N1CCN(C(=O)c2c(F)c(F)c(F)c(F)c2F)C1=S` returned a TGI of 29.9 µM.
Same read-out and setting: with `C=C(C#N)C1OCC2OC(C)(C)OC21` (stereo not drawn) the figure was over 100 µM; with `O=C(N/N=C/c1c(-c2ccccc2)no[n+]1[O-])N1CCOCC1`, over 100 µM.
`COC(=O)c1ccc(NC(=O)O/N=C(\Cl)C(C)C)cc1`: the TGI stood at 30.1 µM.
For the compound `CC(C)C[C@H](NC(=O)Cn1ccc(NCc2ccccc2)cc1=O)B(O)O`, the GI50 was over 62.5 µM and the TGI is over 100 µM.
In the case of `O=C1[C@H]2ON(c3ccccc3)C(c3ccccc3)[C@H]2C(=O)N1c1ccc(Cc2ccc(N3C(=O)[C@@H]4ON(c5ccccc5)C(c5ccccc5)[C@@H]4C3=O)cc2)cc1` (stereo partly drawn), the TGI is over 100 µM.
Still for that read-out and setting: to `C[C@]12CCC(=O)C(O)=C1CC[C@@H]1C2CC[C@]2(C)NC(=O)CCC12` (stereo partly drawn) belongs over 100 µM; to `CCOC(=O)NC1C2CC(=O)OC(O2)C1OC(C)=O` (stereo not drawn), over 100 µM.
On to `Cc1ccc(Cc2cnc(NC(=O)/C=C/c3cccc(C)c3)s2)cc1`, for which the GI50 was 0.448 µM and the TGI was over 100 µM.
In turn, `O=C(CCc1nnc2s/c(=C\c3ccc(Cl)c(Cl)c3)c(=O)n12)Nc1ccc(Cl)c(Cl)c1` yielded a TGI of over 100 µM.
Still for that read-out and setting: with `C=C(CN1CCN(c2cccc(C(F)(F)F)n2)CC1)c1ccc(C(=O)Nc2ccccc2N)cc1` the figure was over 100 µM.
Turning to `CC(=Nc1ccccc1)C1=C(O)C(Cc2ccc(O)cc2)NC1=O` (stereo not drawn), the GI50 is 0.363 µM and the TGI is over 100 µM.
Turning to `COc1cccc2c1CCc1cc3c(N)nc(N)nc3nc1-2`, the TGI stood at 8.74 µM.
The same measure, in the same setting: to `CCOC(=O)N1c2c(ccn2C)-c2ccn(C)c2N1C(=O)OCC` belongs 65.2 µM.
On the same count and under the same terms, with `Nc1c2ccccc2nc2ccc3c(=O)cc(-c4ccccc4)oc3c12` the figure was 2.28 µM; with `O=S(CC1(O)CCCCC1)c1ccccc1` (stereo not drawn), over 100 µM.
Turning to `COc1ccc(-c2cc(-c3cccn3C)c(C#N)c(=O)[nH]2)cc1OC`, the GI50 is over 100 µM and the TGI was over 100 µM.
In turn, `CC1=CC[C@H](C(C)C)C(C(O)[C@@H](C)O[Si](c2ccccc2)(c2ccccc2)C(C)(C)C)C1=O` (stereo partly drawn) returned a TGI of 65.1 µM.
For `CC1=NN(c2cccc(Cl)c2)C2(SCC(=O)N2c2nc3ccccc3s2)/C1=C\c1ccc(N(C)C)cc1` (stereo not drawn), the TGI is over 100 µM.
Still for that read-out and setting: with `C=CCN1C(=O)/C(=C\c2cc(C(C)(C)C)c(O)c(C(C)(C)C)c2)NC1=S` the figure was over 100 µM.
Take `Cc1ccc2c(-c3ccnc(Nc4ccccc4)n3)c(-c3ccc(F)cc3)nn2n1`: the GI50 is 5.82 µM and the TGI is over 25 µM.
For `NC(=O)CCC(Nc1c2ccccc2nc2ccccc12)C(=O)O` (stereo not drawn), the TGI was over 100 µM.
`CC(=O)N1C/C(=C/c2ccc(Cl)cc2)C(=O)/C(=C/c2ccc(Cl)cc2)C1`: the GI50 is 2.04 µM and the TGI worked out at 4.87 µM.
As to `COc1ccc(C2SCC(=O)N2NC(=O)c2ccncc2)cc1F` (stereo not drawn), the TGI is over 100 µM.
Still for that read-out and setting: with `COc1ccc(C(=O)C(C(=O)CC(=O)Nc2cccc(C(F)(F)F)c2)c2ccc(OC)cc2)cc1` (stereo not drawn) the figure was over 100 µM; with `COc1ccc(NC(=O)CC/C(CC(=O)C(C)(C)C)=N\NC(=O)C(=O)NN)cc1`, over 100 µM.
On the same count and under the same terms, to `CSC1=Nc2ccccc2-c2nc3ccccc3cc2C1` belongs over 100 µM; to `O=C1O/C(=C\c2ccccc2)N(c2ccccc2)C1=O`, over 100 µM; to `CCCCCCCCCCCCN1[C@H]2CCC[C@H]2C(O)[C@@H]2CCC[C@@H]21` (stereo partly drawn), over 100 µM.
The same measure, in the same setting: to `CC(C)(Oc1ccccc1)C(=O)Sc1c(-c2ccccc2)c(=O)n(-c2ccccc2)c(=S)n1-c1ccccc1` belongs 49.4 µM.
Take `COc1cc2nc(-c3cccs3)nc(N3CCN(c4ccccc4C(F)(F)F)CC3)c2cc1OC`: the TGI is over 100 µM.
Same read-out and setting: with `CC(C)(C)[Si](C)(C)Oc1cc(CO)cc2c1cc(=N)o[n+]2[O-]` the figure was over 10 µM; with `Nc1nc(Cl)c(/C=N\O)c(NCC2(CO)CCC2)n1`, over 100 µM.
Compound `CC(C)(C)OCC1NC(=O)[C@@H]2Cc3c([nH]c4ccccc34)C(c3ccccc3)N2C1=O` (stereo partly drawn) registered a TGI of over 50 µM.
The same measure, in the same setting: with `Cc1c(CCN2CCOCC2)c(N2CCOCC2)n2c(nc3ccccc32)c1C#N` the figure was over 10 µM; with `N#CC(C#N)=C/C=C(\Sc1c(Cl)c(Cl)nc(Cl)c1Cl)c1ccc(Cl)cc1`, 44.4 µM.
Same read-out and setting: with `COc1cccc(/C=C2\CCCc3ccccc3C2=O)c1` the figure was 42.7 µM.
`CC(=O)OC[C@]1(C)CCCC2(C)C1CCC1C=C(C)[C@H]3CCC12C3` (stereo partly drawn) displayed a TGI of over 100 µM.
Still for that read-out and setting: to `C#CC1(OC(C)=O)CCC2C3CC=C4C=C(OC(C)=O)CCC4(C)C3CCC21C` (stereo not drawn) belongs 79.3 µM; to `CC(=O)c1cccc(C)c1C(=O)O`, over 100 µM; to `O=C(O)NC(c1ccccc1)C(NC(=O)c1ccccc1)c1ccccc1` (stereo not drawn), over 100 µM.
Same read-out and setting: with `O=C(O)C1CCCCC1C(=O)Nn1cnnc1` (stereo not drawn) the figure was over 100 µM; with `Nc1nc(N)c2cc(-c3ccccc3)cnc2n1`, 42 µM.
Take `COc1ccc(-c2oc(=O)ccc2-c2cc(OC)c(OC)c(OC)c2)cc1O`: the GI50 is over 19.8 µM and the TGI is over 100 µM.
As to `CC(=C/C=C/C=C(C)\C=C\C=C(\C)C(=O)O)/C=C/C=C(/C)C(=O)O`, the TGI was over 100 µM.
`O=C1c2ccccc2CN1c1ccc(OCCN2CCCCC2)cc1` yielded a TGI of over 10 µM.
Same read-out and setting: to `O=C(c1ccccc1)c1c(-c2ccccc2)sc2nc3ccccc3nc12` belongs over 100 µM; to `CCOC(=O)CCC(NC(=O)c1ccc(Oc2nc3ccccc3nc2-c2ccccc2)cc1)C(=O)OCC` (stereo not drawn), over 100 µM.
Still for that read-out and setting: with `O=S(=O)(c1ccccc1)C(c1ccc2ccccc2n1)S(=O)(=O)c1ccccc1` the figure was over 100 µM; with `CN(C)CCCNc1ccc2c(=O)n(CCN(C)C)c(=O)n3c4ccccc4c(=O)c1c23`, 0.315 µM; with `Nc1ccc2c(=O)cc(-c3cccs3)[nH]c2n1`, over 100 µM.
Consider `COc1cc(-c2ccc(-c3ccc(C(=N)N)nc3)s2)cc(OC)c1OC`, for which the GI50 is 3.23 µM and the TGI worked out at 11.9 µM.
The compound `CC1=C(C(=O)Nc2cc(=O)n(C)c(=O)n2C)C(c2cccc([N+](=O)[O-])c2)C(C(=O)Nc2cc(=O)n(C)c(=O)n2C)=C(C)N1` returned a TGI of over 100 µM.
`COc1cc(N2CCC(N3CCN(C)CC3)CC2)ccc1Nc1ncnc(Nc2ccccc2S(=O)(=O)C(C)C)n1`: the GI50 is 5.42 µM and the TGI worked out at 21.9 µM.
In turn, `Cc1ccccc1NC(=O)c1c(C)oc2c1C(=O)c1ccccc1C2=O` displayed a TGI of over 100 µM.
In the case of `NC1CCC(Nc2nc(NCc3ccc(-c4ccccc4O)nc3)c3ncn(C4CCCC4)c3n2)CC1` (stereo not drawn), the GI50 is 0.0284 µM and the TGI was determined as 1.17 µM.
With `c1ccc2c(NCCCCCCNc3c4ccccc4nc4ccccc34)c3ccccc3nc2c1`, the TGI came out at 1.96 µM.
For the compound `Cc1cc(C)nc(NS(=O)(=O)c2ccc(NNc3c4ccccc4nc4c(C(=O)Nc5ccc(S(N)(=O)=O)cc5)cccc34)cc2)n1`, the TGI is over 100 µM.
On the same count and under the same terms, with `CCCCCCc1ccc(C(=O)NO)cc1` the figure was over 100 µM.
Take `C1CCCCC2(CCCCCCCCC3(CCC1)OCCO3)OCCO2`: the TGI is over 100 µM.
Regarding `CC(C)[O-].CC(C)[O-].O=C1C=C([O-])C(=O)c2ccccc21.O=C1C=C([O-])C(=O)c2ccccc21.[Ti+4]`, the GI50 is over 90.4 µM and the TGI is over 100 µM.
The compound `C=C1C(C2(C)C(OC(C)=O)CC(=O)OC(C)(COC(C)=O)C2CC(=O)OC)C(OC=O)C(OC(=O)C(O)C(C)CC)C2(C)C(c3ccoc3)CC(=O)C12O` (stereo not drawn) came in with a TGI of over 100 µM.
The same measure, in the same setting: with `O=C(Nc1ccccc1)c1cc2ccccc2c(N=Nc2ccc([N+](=O)[O-])cc2)c1O` the figure was over 100 µM; with `CN(C)CCCn1c(Cc2ccc(Cl)cc2)nc2cc(C(F)(F)F)ccc21`, 30.6 µM.
As for `CNC(=O)c1ccc(N2C(=S)N(c3ccc(C#N)c(C(F)(F)F)c3)C(=O)C2(C)C)cc1F`, the GI50 was over 53.5 µM and the TGI was over 100 µM.
As for `CC[C@@H]1C(=O)OC[C@@H]1Cc1cncn1C`, the TGI is over 100 µM.
Take `Cc1c2c(cc[n+]1Cc1ccccc1)c1ccc(OCc3ccccc3)cc1n2Cc1ccccc1`: the GI50 is 1.02 µM and the TGI amounted to 2.26 µM.
As to `COC(=O)C1=C(O)c2cc(-c3ccccc3)c(-c3ccccc3)c(C#N)c2NC(=O)C1`, the TGI is over 100 µM.
`CNC/C(Cl)=N/S(=O)(=O)c1ccc(C)cc1` registered a TGI of over 100 µM.
Still for that read-out and setting: with `CC(O)c1cc2c(s1)C(=O)c1ccsc1C2=O` (stereo not drawn) the figure was 0.699 µM; with `COc1ccc(S(=O)(=O)NC(CCC(=O)NN)C(=O)NN)cc1` (stereo not drawn), over 100 µM; with `Cn1c(=O)n2n(c1=O)C(S(=O)(=O)c1ccccc1)C2` (stereo not drawn), over 100 µM.
Still for that read-out and setting: with `CC(NO)/C(=N/O)c1ccco1` (stereo not drawn) the figure was over 10 µM; with `NC(=O)c1cc2ccc(O)cc2o/c1=N/NC(=O)c1ccccc1`, over 100 µM.
Same read-out and setting: with `O=C1Cc2c([nH]c3ccccc23)-c2ccccc2N1` the figure was 98.4 µM.
As for `C/C=C1\C=C(OC)CN(CCc2c[nH]c3ccccc23)C1`, the TGI was over 100 µM.
Still for that read-out and setting: with `COc1ccc(-c2cc(=O)c3ccccc3o2)cc1N` the figure was over 100 µM.

The values above are taken from PubChem BioAssay (NCI).
